The source gives no read counts; variants with many changes may rest on few reads.

B1: CPEB3 Ribozyme (parent)
chain: UAACAGGGGGCCACAGCAGAAGCGUUCACGUCGCAGCCCCUGUCAGAUUCUGGUGAAUCUGCGAAUUCUGCUGUAUAUCUC

Variants of B1 are the subject of the data set. Briefly: self-cleavage, relative activity (ratio to wild type); higher = more cleavage; in vitro, sequencing. In short, it runs like this:
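Relative activity was defined as the cleaved/total read fraction for a variant divided by the same fraction for the unmutated ribozyme. CPEB3 self-cleaving ribozyme libraries were made by rounds of error-prone PCR, barcoded, and transcribed in vitro with T7 RNA polymerase for 5 hours at 37°C, and cleavage ran through transcription plus a 15 min DNase I step before EDTA. Illumina sequencing of template-switched reverse transcripts gave the reads, and DNA sequencing mapped the barcodes. Averages come from three batches, using variants with at least 5 reads.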
As to A3U A21G U51C, the self-cleavage was determined as 0.74. With A3U A28C U41A A47G U48C the figure was 0.48; with C4A C40U A65G, 0.15.

With C4G A13U U31C U49C, the self-cleavage was 0.28. The same measure for C4A C71G U78C: 0.6; for A3U G10A A47G: 0.45.

On to C4U G7U C11G U48C A64G, for which the self-cleavage worked out at 0.02.

On to C4A C23G C38U U48C U49C U58G, for which the self-cleavage stood at 0.1. Turning to C4U G9U G52U A57G A75G, the self-cleavage was found to be 0.09. The same measure for A3U A45U C68A: 0.02. With A3U A45G U60C the figure was 1; with C4U A28U C32G, 0.29.

As to A3U G9U U31C, the self-cleavage came to 0.05.

As to C4G U26C A35C U80A, the self-cleavage stood at 0.61. The same measure for A3U C23U A57G A75G: 0.09; for A3U C12G U67G: 0.19. With C4A U60A U72G the figure was 0.89; with C4G A21G A56U U66C U80A, 0.97; with A3U A56G U69G, 0.6. With C4A U25C A28G G36A A45C the figure was 0.1.

As for C4U A5G C23A U25A A57G A64U U66G, the self-cleavage was 0.06. As to A3U A28U G42A U49C, the self-cleavage was 0.24. The same measure for A3U U41A G61C U67C U78C: 0.17; for A3U A47G A64G: 0.47; for A3U G19U U26A U51A U69C: 0.17.

Turning to C4U A20U U54C A56U U66C U69C, the self-cleavage is 0.17. With A3U G9A U31C A64U the figure was 0.15; with C4U A57G U69C A75G, 0.58; with C4U A18U U25C C39U A47U G70C, 0.15. With A3U U51C A57G U66C the figure was 0.4; with C4U A13G G52A U54C, 1.04; with A3U U51A A65U U66C, 0.27.

In the case of A3U A35G A57G, the self-cleavage came out at 1.35. With C4U C11U C50U A56U the figure was 0.3. With A3U A35C G52A G53A U66C U67C U80G the figure was 0.15; with C4U A28G C40U U72C, 0.73. With A3U C11G U51A U60C the figure was 0.11.

Take C4U A57C U60G U78C: the self-cleavage worked out at 0.57. The same measure for A3U C4A G63A U67A: 0.55; for A3U C12G A18G A65G U69A: 0.12; for A3U U60C A65G: 0.19. The same measure for C4A A64G C79U: 1.14; for A3U A64U U80C: 0.58.

With C4U A13G A28U A35C, the self-cleavage came out at 0.69. With C4U A35C U76C the figure was 1.19.

As for A3U A28U C71U, the self-cleavage stood at 0.38. With A3U G22A G30C U41C U60C the figure was 0.24; with C4U A18U U31A, 0.46; with C4U A20G A28G A35G U78C, 1.19. With A3U G53A U69C, the self-cleavage turned out to be 0.71. With A3U G9C A15G U31C U43C, the self-cleavage amounted to 0.03. The same measure for A3U G9U A35G A45G U51C A65U U76A: 0.06; for A3U G6A A13U U41G U69C U72C: 0.09; for A3U U25C A28U A47G A64G U76G: 0.08. With C4A C29G U72C the figure was 0.39; with C4U C11A C37G U43C U69C, 0.08.

As for A3U A28C U49C, the self-cleavage came out at 0.45. The same measure for C4G A21G U72G: 0.87; for C4G U48C U60C: 0.32; for A3U U69C U80C: 0.5. As to C4U A15U A21G A28U A47G, the self-cleavage worked out at 0.49.

As to A3U U48A A75G, the self-cleavage was 0.48. The same measure for A3U A21U U49C A57G: 0.1. For the variant A3U U25C U54A U60C U69C, the self-cleavage was found to be 0.09.

Turning to A3U G36U U41C U49A U60C, the self-cleavage stood at 0.11.

Turning to C4A A18G U60C U72C, the self-cleavage is 0.22. On to C4U G8U A20U U41C A57G, for which the self-cleavage turned out to be 0.05. With A3U A28G C40A U48C U66C the figure was 0.2; with A3U A28G C40A U41C A64U U78C, 0.11; with A3U G63A U78C, 0.8. The same measure for A3U U54C A64G U69A U78C: 0.18; for C4A A5G A21G U78A: 0.62. With C4U A18U C39G U78C U80C the figure was 0.08. Turning to C4U C32A U43A U51A U67C G73A, the self-cleavage came out at 0.1.

For C4U A18G U25C C32U A64U U80A, the self-cleavage was 0.28. A3U C29U U43A A64G G70A U72A: the self-cleavage worked out at 0.08. For C4U A18U G19A A20G A57G U58C U72C, the self-cleavage was found to be 0.09. The same measure for A3U A28G A64U U72C G73A U74C: 0.18; for C4G U41A U51C A56U: 0.25; for C4A U26C C32G U43C U48C U74C U76C: 0.07. With C4U G10A A15G A21U U31A A45G A47G the figure was 0.05; with A3U A28U A65G A75U, 0.77; with A3U A28G A47U A64G, 0.28. With A3U G8U A35U A65G the figure was 0.07; with C4U C40U A57G U67C, 0.21; with C4A C29U C40G U41C U72C, 0.39. On to C4U A5G A13G A21U U58A U66C, for which the self-cleavage was 0.15.

On to C4A C29A C59G, for which the self-cleavage was 0.24. For C4U C11U A21G U26A U43C, the self-cleavage is 0.25. With A3U A28U U48C U58A C71U the figure was 0.14; with A3U A35G U67C, 0.66. The same measure for A3U C38U A45G: 0.36; for A3U U41A U51A U60A: 0.29.

For C4U C12U A21G U69C A77G U80C, the self-cleavage was 0.43. The same measure for C4G G8C A28U A35U U51C G52A: 0.06; for A3U G33U G61C: 0.1; for A3U U25C U66C U72C U74C U80C: 0.28. With C4G A18G A28G U43C the figure was 0.29. Regarding C4A A21G G22A G63A, the self-cleavage was determined as 0.17.

For the variant C4U G6A U67C U72C U76C A77U, the self-cleavage was found to be 0.13. For the variant A3U U43C U74A, the self-cleavage came to 1.1.

A3U A45G U78C: the self-cleavage came to 0.93. With C4A A45U U54A the figure was 0.66. On to A3U C4U A47U U51C U69C, for which the self-cleavage turned out to be 0.41. Turning to A3U A28G A64G, the self-cleavage was 0.5. With C4U A56G A57G U67A U72A U80C, the self-cleavage is 0.33.

Take A3U A35U G46U: the self-cleavage was 0.25.

Regarding C4U A20G A21G C29U U72C, the self-cleavage came to 0.13. With A3U G10A U58C the figure was 0.07. The same measure for A3U G9A A13G A28G: 0.17. Take A3U G7U U60C: the self-cleavage worked out at 0.17. With A3U C11G A15U U25A the figure was 0.07; with C4G A20C U51A U74C U78A, 0.19. With A3U A45G G52A U60C A75G the figure was 1.14; with C4A C11U U69C U76A, 0.57; with A3U U51A C59U, 0.97. With C4A A5G A15G A45U U49C U72C the figure was 0.26. As for C4G U48C U54C, the self-cleavage is 0.63.

For A3U A35U U43C U49C A57G A77G U78C, the self-cleavage worked out at 0.1.

As to C4U A5G A45G U58G U66A, the self-cleavage was determined as 0.12. With A3U U51G U60C the figure was 0.78; with A3U U51C A56G A64U, 0.18.

In the case of C4G A28G U51C A57G, the self-cleavage came to 0.45. The same measure for C4G A21G C29G U41C A57G: 0.08; for A3U G8A U25C U54A U69C U78C: 0.07; for A3U U41C U54C: 0.88.

A3U U41C G63A A65G: the self-cleavage was determined as 0.47.

Turning to C4G C23U C27G A56G C62U U67C, the self-cleavage was 0.05. With C4A U31G G53C A57G the figure was 0.62. The same measure for A3U C14G U31A U60C A65G: 0.12; for A3U C38A U66C: 0.11; for C4A A20G A56G: 0.55. The same measure for A3U U51C U58A: 0.29. As to A3U U25C A35G A64G A77G, the self-cleavage came out at 0.4. With A3U G24A G36U U41C the figure was 0.11; with A3U G16U U26C A35G G55A, 0.11; with A3U A57U U74A, 1.17. With A3U A57U U74C, the self-cleavage worked out at 0.99. For the variant A3U A35G C37U U48C A56U U69A U80C, the self-cleavage came to 0.32.

For the variant A3U C32U A45G, the self-cleavage was 0.36. With A3U U26C G36U U78C the figure was 0.47; with C4A A5G C14A U43C A47U U54C U66C, 0.06.

In the case of A3U G33A U43C G55U A64U U80C, the self-cleavage was found to be 0.08.

As for A3U C38U U49A, the self-cleavage was found to be 0.44. Turning to A3U A28G A64U U72A U78A, the self-cleavage is 0.16. With C4U C11G U31C U41A U78C the figure was 0.11. With A3U U49C A56G U72C the figure was 0.96; with A3U A35G C39U U54A A65G, 0.86. The same measure for C4U G10A A15U A21U U25C U31A: 0.07; for A3U A28G A35U: 0.41. As for A3U A28G A35G, the self-cleavage was determined as 1.13. As to C4U A18U U26C A64G U78C, the self-cleavage turned out to be 0.13. The same measure for C4U A20G A21G A64U: 0.25; for A3U U58C U60C A64U: 0.57.

Regarding A3U G24C U31C G46U A65G U80C, the self-cleavage was determined as 0.2. The same measure for A3U U76A U78C: 1.05; for A3U U26C U41G A57G U66C G70A U80C: 0.37; for A3U A28U U48C: 0.54.

Take A3U U25C A45G: the self-cleavage was determined as 0.8. The same measure for A3U U25C A45U: 0.51. With A3U G9A A18G U25A G46A U49A U58A the figure was 0.04; with A3U A45U A65U A75G C81U, 0.06; with A3U C14A A20G U80C, 1.04.

On to C4U A28C G30C, for which the self-cleavage came to 0.37. For A3U U31G A35G, the self-cleavage was determined as 1.17. With A3U C12G G30A A35U U41C U69A U80A the figure was 0.06; with A3U G6A A45G U49C U72C U80C, 0.06.

Values taken from the RNAGym collection of RNA variant scans (doi:10.1093/nar/gkz1192).
